Source: publication PMC5458268
Results are given in words; binding and its absence hold for the method and conditions named. In cells and extracts the contact can be indirect. Some entries that bind do so weakly or less than the wild type. For part of these data: Where a sequence is shown, tags or fusion partners need not be part of it. One block for each substance: values may come before it.

Sequences of proteins named here, by UniProt entry; tags and fusion partners are left off. A change or cut given only in a name is not applied to a line headed by its entry. Residues count along the entry.
UniProt O60566: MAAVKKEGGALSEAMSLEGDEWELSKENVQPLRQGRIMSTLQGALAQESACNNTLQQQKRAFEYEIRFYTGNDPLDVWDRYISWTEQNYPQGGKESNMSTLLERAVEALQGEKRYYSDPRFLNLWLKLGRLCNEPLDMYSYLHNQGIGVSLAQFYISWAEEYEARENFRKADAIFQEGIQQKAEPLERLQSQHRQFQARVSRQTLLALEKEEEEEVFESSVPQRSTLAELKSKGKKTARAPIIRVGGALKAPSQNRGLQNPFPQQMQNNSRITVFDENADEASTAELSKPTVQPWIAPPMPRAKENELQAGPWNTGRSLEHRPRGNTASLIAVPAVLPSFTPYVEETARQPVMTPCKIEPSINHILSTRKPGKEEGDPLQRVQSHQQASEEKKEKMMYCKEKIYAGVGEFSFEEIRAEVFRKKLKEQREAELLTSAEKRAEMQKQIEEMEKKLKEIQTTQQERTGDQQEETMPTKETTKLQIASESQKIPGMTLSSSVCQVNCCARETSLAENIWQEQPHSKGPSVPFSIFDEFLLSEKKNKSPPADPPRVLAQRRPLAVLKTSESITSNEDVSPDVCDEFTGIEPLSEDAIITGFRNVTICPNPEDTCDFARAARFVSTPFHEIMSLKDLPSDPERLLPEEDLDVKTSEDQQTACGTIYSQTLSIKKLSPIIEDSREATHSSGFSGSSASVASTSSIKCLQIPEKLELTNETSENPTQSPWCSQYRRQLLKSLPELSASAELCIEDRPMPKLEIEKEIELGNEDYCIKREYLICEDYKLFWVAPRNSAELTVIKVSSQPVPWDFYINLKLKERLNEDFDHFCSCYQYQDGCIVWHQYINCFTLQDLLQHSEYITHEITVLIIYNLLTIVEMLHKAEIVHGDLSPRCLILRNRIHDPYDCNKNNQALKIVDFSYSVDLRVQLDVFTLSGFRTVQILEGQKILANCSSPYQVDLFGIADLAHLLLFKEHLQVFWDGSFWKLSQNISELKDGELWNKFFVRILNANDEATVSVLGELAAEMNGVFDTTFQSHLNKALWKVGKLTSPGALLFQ
GST-BubR1 central region (amino acids 201-500): residues 201-500 of O60566
UniProt O43684: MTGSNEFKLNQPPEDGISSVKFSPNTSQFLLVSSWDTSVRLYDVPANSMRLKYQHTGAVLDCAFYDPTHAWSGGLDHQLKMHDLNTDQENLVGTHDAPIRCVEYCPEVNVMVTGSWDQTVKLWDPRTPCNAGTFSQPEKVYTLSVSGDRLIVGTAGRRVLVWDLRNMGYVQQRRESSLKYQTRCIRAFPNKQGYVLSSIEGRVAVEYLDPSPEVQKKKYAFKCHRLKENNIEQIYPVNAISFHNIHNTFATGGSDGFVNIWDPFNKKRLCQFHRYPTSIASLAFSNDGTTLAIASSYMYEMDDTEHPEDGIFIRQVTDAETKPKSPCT

Tests used:
[1] = target: BubR1 (human (endogenous in Ramos)) (UniProt O60566); experiment: co-IP; endogenous proteins; Ramos cells synchronised with nocodazole for 18 hr; lysates precipitated with anti-BubR1 or anti-Peli1 antibody, blotted with anti-Peli1 and anti-Bub3 or anti-BubR1
[2] = target: GST-BubR1 central region (amino acids 201-500) (UniProt O60566); experiment: pull-down; purified GST-BubR1 deletion mutants incubated with extracts of nocodazole-synchronised Ramos cells; blot with anti-Peli1 or anti-Bub3; only the target purified
GST-Peli1 (human) [3] = target: T1, GST-Peli1 (human) (UniProt Q96FA3); experiment: pull-down; beads bound to GST-Peli1 incubated with lysate of the attached population (considered non-mitotic) of nocodazole-treated HeLa cells; blot for BubR1; only the target purified
T1 sequence: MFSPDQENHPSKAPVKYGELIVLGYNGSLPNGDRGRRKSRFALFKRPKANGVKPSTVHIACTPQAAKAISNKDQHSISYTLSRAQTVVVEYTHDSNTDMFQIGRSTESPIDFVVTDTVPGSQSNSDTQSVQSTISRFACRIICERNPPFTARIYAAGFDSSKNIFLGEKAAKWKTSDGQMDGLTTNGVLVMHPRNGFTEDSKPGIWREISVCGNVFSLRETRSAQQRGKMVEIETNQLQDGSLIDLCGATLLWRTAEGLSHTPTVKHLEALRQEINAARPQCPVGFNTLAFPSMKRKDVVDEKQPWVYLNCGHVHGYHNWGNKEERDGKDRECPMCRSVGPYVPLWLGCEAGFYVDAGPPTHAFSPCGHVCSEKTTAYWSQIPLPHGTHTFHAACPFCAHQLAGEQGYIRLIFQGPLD

GST-Peli1 (human) [4] = target: T1, GST-Peli1 (human); experiment: pull-down; beads bound to GST-Peli1 incubated with lysate of the floating population (mitotic shake-off) of nocodazole-synchronised HeLa cells; blot for BubR1; only the target purified
[5] = target: T2, Myc-Peli1 COOH-terminal fragment (amino acids 281-418) (human) (UniProt Q96FA3); experiment: co-IP; HeLa cells co-transfected with Myc-Peli1 (full length or deletion mutants) and Flag-BubR1, nocodazole 200 ng/ml for 24 hr; precipitated with anti-Myc, blotted with anti-Flag
T2 sequence: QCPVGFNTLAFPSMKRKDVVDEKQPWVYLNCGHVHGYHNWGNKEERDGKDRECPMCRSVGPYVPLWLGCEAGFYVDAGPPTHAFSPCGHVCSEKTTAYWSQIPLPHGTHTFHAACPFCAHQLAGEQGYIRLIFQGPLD

[6] = target: T3, Myc-Peli1 NH2-terminal fragment (amino acids 1-280) (human) (UniProt Q96FA3); experiment: as above
T3 sequence: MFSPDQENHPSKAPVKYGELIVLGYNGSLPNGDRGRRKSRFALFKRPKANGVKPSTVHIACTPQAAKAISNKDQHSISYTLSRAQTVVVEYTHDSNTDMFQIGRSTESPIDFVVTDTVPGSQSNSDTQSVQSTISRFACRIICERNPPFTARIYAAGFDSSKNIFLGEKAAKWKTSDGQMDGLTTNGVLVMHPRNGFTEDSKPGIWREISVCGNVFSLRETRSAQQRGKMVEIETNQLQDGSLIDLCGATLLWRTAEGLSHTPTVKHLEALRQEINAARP

- binding [1]: binds
- binding [2]: binds
Substance: Bub3 (from UniProt O43684 1-328)

- binding (GST-Peli1 (human) [3]): binds weakly
- binding (GST-Peli1 (human) [4]): binds
Substance: BubR1 (from UniProt O60566 1-1050)

- binding [5]: binds
- binding [6]: no binding
Substance: Flag-BubR1 (from UniProt O60566 1-1050)
